According to PubChem BioAssay AID686979 (National Center for Advancing Translational Sciences (NCATS), 2013):
Out of some 420,000 compounds screened, about 50,000 (12%) were called active. The inconclusive results got no clear call from the source; some entries with a clear call stand among them for comparison. The call rests on the fitted dose curve; in most records, active means well fitted inhibition curve with a large enough effect; inconclusive means small, poorly fitted or top-dose-only effect; inactive means flat fitted curve, though single readings scatter. No potency is given beside an inconclusive call; the fits are too rough.
On the % scale 0 is the no-effect control and ±100 the full control effect; potency means the concentration at half of the fitted maximal effect; tags describe the fitted curve by direction and shape.

Assay: qHTS for Inhibitors of human tyrosyl-DNA phosphodiesterase 1 (TDP1): qHTS in cells in presence of CPT; further: nearly all actives have a fitted effect of over 55% in size
Details: chicken DT40 Tdp1-/-;hTDP1 cells + 20 nM CPT, ATP luminescence, 48 h; activity change, negative = growth inhibition: at 46.2 µM (top of the series) unless noted
In short: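 Cell growth measured by CellTiter-Glo luminescence after a minimum 48 h, 37 C compound exposure with 20 nM CPT in Tdp1-knockout DT40 cells stably expressing hTDP1, seeded 400/well; qHTS titration format.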
For CN(C)c1nc(N)nc(CSc2ncc(Cl)cc2Cl)n1, the “activity change, negative = growth inhibition” value was inactive: -13.2%.
With Cc1nn(C)cc1S(=O)(=O)N1CCN(c2ccccc2)CC1 the “activity change, negative = growth inhibition” value was inactive: -1.6%.
In the case of O=C(CSc1n[nH]c(-c2cc(Cl)ccc2Cl)n1)NCCN1C(=O)CSC1=O, the Potency is reported as inconclusive [inhibitor, single point].
In the case of CC(=O)NC1=C(C#N)C(c2ccccc2)c2c(ccc3ccccc23)O1 (stereo unspecified), the Potency is reported as active: 8.2 µM.
In the case of CCOc1ccc(NC(=S)NC(=O)/C=C/c2ccco2)cc1, the Potency is reported as inconclusive [inhibitor, single point].
For O=C(Nc1cccc2cccnc12)c1cccc(Cl)c1, the “activity change, negative = growth inhibition” value was inactive: -16.5%.
In the case of COc1ccccc1N1CCN(C(=O)Cn2nnc(-c3cccs3)n2)CC1, the activity change, negative = growth inhibition is reported as inconclusive: -33.9% [inhibitor].
In the case of CCCCc1ccc(NC(=S)NCc2cccc(OC)c2)cc1, the Potency is reported as inconclusive [inhibitor, single point].
For N#C/C(=N\Nc1ccc(S(=O)(=O)N2CCCCCC2)cc1)C(N)=S, the Potency was inconclusive [inhibitor, single point].
In the case of Cc1cc(C)n(-c2nc3ccccc3nc2N2CCN(C(=O)c3ccc(Cl)cc3)CC2)n1, the Potency is reported as inconclusive [inhibitor, partial curve].
With Cc1nn2c(C)c(C(=O)NCCc3ccccc3)cnc2c1-c1ccccc1 the Potency was inconclusive [inhibitor, single point].
In the case of Cc1ccc(-c2csc(NC(=O)c3ccco3)n2)cc1C, the “activity change, negative = growth inhibition” value is reported as inactive: -8.83%.
In the case of O=C(Cc1ccc(OCCc2ccccc2)cc1)NO, the Potency is reported as inconclusive [inhibitor, single point].
For CCOC(=O)c1ccc(NC(=O)CC(=O)Nc2ccc3nc4n(c(=O)c3c2)CCCCC4)cc1, the Potency was inconclusive [inhibitor, full curve, poor fit].
With CC(NCC(=O)Nc1ccccc1C(=O)NC1CC1)c1cccc(Cl)c1 (stereo unspecified) the Potency was inconclusive [inhibitor, single point].
With Cc1cccc(C)c1NC(=O)C(c1ccc(C#N)cc1)n1c(=O)c(-c2ccco2)nc2ccccc21 (stereo unspecified) the Potency was inconclusive [inhibitor, single point].
With O=C1OC[C@H]2CCCN2C(=O)[C@@H](CC(=O)N(CCO)Cc2ccccc2)C/C=C\CC[C@@H]1Cc1ccc(F)cc1 the Potency was active: 18.4 µM.
With Cc1ccc2c(Cl)cc(Cl)c(OCC(=O)Nc3cccc(S(=O)(=O)N(C)C)c3)c2n1 the Potency was inconclusive [inhibitor, single point].
With COc1ccc(CCNC(=S)NC(=O)c2ccccc2)cc1C the Potency was inconclusive [inhibitor, single point].
With Cc1ccc2oc(=O)c3cnn(CC(=O)NC4CCN(Cc5ccccc5)CC4)c3c2c1 the Potency was active: 16.4 µM.
For CC1C(=O)CCC2[C@]1(C)CCC1[C@]2(C)CC[C@@]2(C)C3CC(C)(C)CC[C@]3(C)CC[C@@]12C (stereo partly specified), the “activity change, negative = growth inhibition” value was inactive: 6.57%.
In the case of CCC(=O)Oc1ccc(C(=O)Nc2ccc3c(c2)C(=O)N(C2CCCCC2)C3=O)cc1, the Potency is reported as active: 20.6 µM.
For COCCn1c(C)cc(C(=O)COC(=O)c2cccnc2SC)c1C, the Potency was inconclusive [inhibitor, single point].
With COc1ccc(-c2nc3sc(CCNS(=O)(=O)c4ccccc4)c(C)n3n2)cc1 the “activity change, negative = growth inhibition” value was inactive: 16.8%.
For O=C(NC1C2CC3CC(C2)CC1C3)C1CCCCC1 (stereo unspecified), the “activity change, negative = growth inhibition” value was inactive: 3.41%.
For Cc1ccccc1CN1C[C@@H]2C[C@@H](c3cn[nH]c3-c3ccccc3)N3CCC[C@@]23C1=O, the Potency was inconclusive [inhibitor, single point].
With O=C(Nc1ccc([N+](=O)[O-])cc1)Nc1ccc(Cl)cc1F the Potency was active: 2.59 µM.
In the case of CSc1nc(O)c(N=Nc2ccc(F)cc2F)c(=O)[nH]1, the Potency is reported as inconclusive [inhibitor, partial curve].
For CC#C[C@@H](CC)c1ccc2ccn(C)c2c1, the Potency was inconclusive [inhibitor, single point].
In the case of Cc1cccc(C)c1NC(=O)C1(C)CSCC(=O)N1C1CCN(Cc2ccccc2)CC1 (stereo unspecified), the “activity change, negative = growth inhibition” value is reported as inactive: -1.69%.
For O=C(NCC1CCN(Cc2ccccc2F)CC1)Nc1ccc(F)c(Cl)c1, the Potency was inconclusive [inhibitor, single point].
With CCOC(=O)C1CCN(C(=O)c2c(C)oc3c2C(=O)c2ccccc2C3=O)CC1 the Potency was active: 5.17 µM.
For CC(=O)N1c2ccc(S(=O)(=O)NCC3CCC(C(=O)NCc4ccc(C)o4)CC3)cc2CC1C (stereo unspecified), the Potency was inconclusive [inhibitor, single point].
With O=C(C(F)C(F)(F)F)N1CCN(c2ccccc2)CC1 (stereo unspecified) the “activity change, negative = growth inhibition” value was inactive: -3.62%.
In the case of CCCCCCCN(CC)CCCC(O)c1ccc(NS(C)(=O)=O)cc1 (stereo unspecified), the Potency is reported as inconclusive [inhibitor, partial curve, poor fit].
For CC(C)Cc1nnc(NC(=O)CN2C(=O)NC3(CCCC3)C2=O)s1, the “activity change, negative = growth inhibition” value was inactive: -11.6%.
With Cc1ccc2ncc3c(-c4ccc(F)cc4)nn(CC(=O)Nc4ccccc4C)c3c2c1 the “activity change, negative = growth inhibition” value was inactive: -14.2%.
In the case of O=C(O)c1cnc(-c2ccccc2)nc1Sc1ccc(Cl)cc1Cl, the “activity change, negative = growth inhibition” value is reported as inactive: 22.1%.
In the case of Cc1ccc2oc(C(=O)Nc3ccc(S(=O)(=O)Nc4nccc(C)n4)cc3)cc(=O)c2c1, the Potency is reported as inconclusive [inhibitor, single point].
With Cc1ccc(NC(=O)CSc2nnc(N)s2)cc1S(=O)(=O)N1CCOCC1 the “activity change, negative = growth inhibition” value was inactive: 1.67%.
In the case of COc1ccc(Br)cc1CNC(=O)CN1C(=O)c2cccnc2Oc2ccc(C)cc21, the Potency is reported as inconclusive [inhibitor, single point].
In the case of CC(NC(=O)CSc1ccccc1C(=O)O)C1CC2CCC1C2 (stereo unspecified), the “activity change, negative = growth inhibition” value is reported as inactive: 3.57%.
In the case of CCn1c(=O)c2cc(C(=O)N(C)c3ccccc3F)sc2c2ccccc21, the Potency is reported as inconclusive [inhibitor, single point].
With CCOC(=O)Nc1ccc2c(COC(=O)CN(C)S(=O)(=O)c3ccc(C)cc3)cc(=O)oc2c1 the Potency was inconclusive [inhibitor, single point].
In the case of COc1ccc(C2CCCN2C(=S)Nc2cccc(Cl)c2)cc1OC (stereo unspecified), the “activity change, negative = growth inhibition” value is reported as inactive: -15.1%.
In the case of COCc1ccc(C(=O)NC2CCCc3c2cnn3-c2ccc(C)c(C)c2)o1 (stereo unspecified), the Potency is reported as active: 18.4 µM.
